Data taken from paper PMC10668032.
Some of the results follow. At the low end of the ranking the order means little.

What follows are sequences tested against SIX1 homeodomain (reference allele) (UniProt Q15475) (assay: universal protein binding microarray). Settings: Universal all-10-mer PBM (8x60K, AMADID 030236), 300 nM GST-tagged protein, Alexa Fluor 488 anti-GST; buffer, salt, pH and temperature not stated; high values mean tight binding; most listed sequences are background and not binding sites; double strand, one strand shown.

| Sequence | binding signal [E-score] |
| --- | --- |
| AGGGGCGC | -0.17 |
| CCAAGATC | 0.22 |
| TCACATAA | -0.0263 |
| GGATTGCA | 0.0902 |
| ATGCAGGA | 0.143 |
| GTATCGCA | 0.431 |
| GGAACGCC | -0.0992 |
| TCCTGGCA | 0.0841 |
| CAGAGTTC | -0.176 |
| GGGCGTAA | -0.114 |
| ATTTGGCC | -0.195 |
| CCTTCCCA | 0.0765 |
| AGAGATCT | 0.198 |
| CAATACCA | 0.375 |
| ACCGGGAA | 0.0734 |
| ACCGCCGG | -0.143 |
| AACATAGG | -0.141 |
| TCACTACA | -0.0328 |
| ACTTAGAC | 0.00364 |
| ATGGAGTC | 0.0859 |
| CTTACAAG | -0.0515 |
| GCAGGCAC | -0.303 |
| TCAGCCGA | -0.00232 |
| CTGCCTGA | -0.0906 |
| TCATCGCA | 0.119 |

| Sequence | binding signal [E-score] |
| --- | --- |
| AAATTGGA | 0.0202 |
| ATTGGTGC | -0.165 |
| CTGAATAA | -0.141 |
| TAACGGGA | -0.0308 |
| CACCGTGA | 0.178 |
| CGAAGCAA | -0.115 |
| GAAACGGA | 0.0348 |
| CTGTTGTA | -0.139 |
| CCTATGGA | 0.00774 |
| CTGTAAGA | -0.0658 |
| CAATGTAG | -0.206 |
| ACCGACGA | -0.0354 |
| CTTCGGGA | -0.107 |
| CCAAGTAG | -0.071 |
| CGGTGTAG | 0.297 |
| AGCGAATA | -0.00215 |
| GCGCGCGA | -0.0287 |
| AGAGCGCT | -0.136 |
| CACTTAGA | 0.123 |
| AGTCCAGA | -0.135 |
| CACAACAG | -0.0838 |
| AGCGGCTC | 0.0652 |
| CCCGATCG | 0.323 |
| CAACGGCA | -0.178 |
| TAATGCCA | 0.00471 |

| Sequence | binding signal [E-score] |
| --- | --- |
| ATAGCAGC | -0.102 |
| TAATAAAA | -0.185 |
| CGACCCGC | 0.135 |
| CCAAACGC | -0.252 |
| TCCAGAAA | -0.0609 |
| CGCCATTC | -0.0996 |
| AGGGCAAT | -0.212 |
| ACGCCAAA | -0.176 |
| AGATGAAG | -0.0574 |
| GAAATTCC | -0.332 |
| AGACGCCG | 0.00043 |
| GCCTGTCC | -0.222 |
| AAACTCGA | -0.0575 |
| ACTAGGAC | -0.198 |
| TATCAGAA | 0.354 |
| ATCAATAA | 0.182 |
| GGTACGAC | -0.117 |
| ACGGCCCG | 0.0659 |
| ATGGATAG | 0.247 |
| AACACTCG | -0.255 |
| GCATCTAC | 0.094 |
| AATCTTTA | -0.171 |
| ACGCTGGC | 0.102 |
| ACGCAATC | -0.0966 |
| CACTTGAA | -0.0417 |

| Sequence | binding signal [E-score] |
| --- | --- |
| CTCAATAC | 0.259 |
| ATGCAGCA | -0.0652 |
| CACTCGTC | -0.158 |
| TAGTCTGA | 0.0959 |
| CCGTGTAG | 0.025 |
| ACATCTAT | 0.0949 |
| ATCTCGTC | 0.134 |
| CGTACTGC | -0.234 |
| ACTGAAGT | -0.25 |
| CGGTTCAC | -0.0481 |
| TCACGACA | -0.109 |
| CACTCTAC | 0.0386 |
| CTCGTACC | 0.0239 |
| CTGATCGC | 0.191 |
| CAGGCGCC | -0.282 |
| AACAGCAA | -0.12 |
| TCGATAGA | 0.123 |
| CGGTGATA | 0.409 |
| ATGACCGG | -0.0478 |
| GGAGACCC | 0.0946 |
| ACCTTGAA | -0.172 |
| ATAAACCA | -0.136 |
| CTACACAG | -0.132 |
| AGGTCAAA | -0.337 |
| AGGGTTCA | -0.00559 |

| Sequence | binding signal [E-score] |
| --- | --- |
| AATACTGT | 0.183 |
| CTGACCAG | -0.103 |
| ATAATGCC | 0.0969 |
| ACCGGTAA | 0.0661 |
| TATGCAAA | 0.0318 |
| CCGGGAAC | 0.0419 |
| GATATTGA | 0.287 |
| AAGCCCTG | -0.113 |
| CCTCACAC | -0.182 |
| GTGCCTGA | -0.153 |
| ATACCAAT | 0.348 |
| ACCAACCG | -0.000715 |
| CATGAGCA | -0.127 |
| CCTCCCAC | 0.00268 |
| AATAGTGG | -0.112 |
| GTGGTAGA | 0.0943 |
| AATCATAG | -0.107 |
| ACGAATTA | -0.00856 |
| AAGTCGAA | -0.256 |
| AAATCCAG | 0.0128 |
| CAAAGCAG | -0.0229 |
| AATTGCAC | -0.0168 |
| CGACATAA | -0.215 |
| CAAAAGCG | -0.211 |
| CCGGGTGC | 0.102 |

| Sequence | binding signal [E-score] |
| --- | --- |
| GTACCTTA | -0.0988 |
| ATGTACTA | 0.00732 |
| GTTCATGA | -0.0278 |
| CGCCTGAC | -0.101 |
| AAAAGTAT | 0.204 |
| ACATCAAA | -0.134 |
| ATCCATGA | 0.273 |
| ACCTCATA | 0.106 |
| GTGCACAA | -0.245 |
| AGGAAGTA | -0.0386 |
| ATTTGAGG | -0.199 |
| CTGGCACA | -0.263 |
| AGAGAGCT | -0.143 |
| AAAAGCGC | -0.219 |
| AAAACTAC | 0.137 |
| ACAATCAT | -0.0395 |
| ACAGAGCG | -0.243 |
| CGAGACTC | 0.092 |
| CCCGTCAA | -0.266 |
| AATATTAA | 0.187 |
| CAACTCGC | -0.128 |
| GACCCCTC | 0.0959 |
| AGTGTGCA | -0.132 |
| AAACTCTT | -0.322 |
| GTAAGCAA | -0.0961 |

| Sequence | binding signal [E-score] |
| --- | --- |
| TCTGACCA | -0.11 |
| ATGCACGC | 0.0639 |
| ATTATCCA | 0.176 |
| ATGCTGGA | 0.0334 |
| CGCCCATA | 0.136 |
| TAGTGCCA | -0.0812 |
| AGCTCTCG | -0.0693 |
| CGTAATGA | 0.0306 |
| GCGGCAAC | -0.191 |
| ACTTTCAA | -0.21 |
| GGAAACAC | -0.0804 |
| TACGTCAA | 0.0433 |
| CAGTTGTA | -0.105 |
| GTGAACAA | -0.127 |
| AACTTACA | -0.0133 |
| ATCTCTGC | 0.185 |
| ATAACGGG | -0.167 |
| CACACGTG | -0.0797 |
| TGATTGAA | -0.0643 |
| AGATAGAA | 0.00317 |
| GATCTTGC | 0.229 |
| CTACTGTC | -0.153 |
